From the supplement of paper PMC9046079
Where a name gives a salt, the structure may show the parent alone. ± gives the standard deviation of the averaged measurements. The list shows a part of the results.

System: murine small intestinal organoids (ENR+CD Paneth differentiation)
Experiment: carbachol-stimulated secreted lysozyme activity relative to plate median (log10 fold change); higher = more Paneth cell lysozyme secretion
Details: 10 µM; 6 d; carbachol 10 µM
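For basal (non-stimulated) secreted lysozyme activity relative to plate median in this document: ISC-enriched organoid precursors grown as 2.5D pseudo-monolayer on Matrigel, compound given on day 0 and day 3, plate values LOESS-normalized before median fold change, three murine donors.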

Compound	carbachol-stimulated secreted lysozyme activity (log10)
O=C1CC[C@@]2(O)[C@H]3Cc4ccc(O)c5c4[C@@]2(CCN3CC2CC2)[C@H]1O5 [Naltrexone HCl]	0.0348 ± 0.11
COc1ccc(C(=O)N2CCCC2=O)cc1 [Aniracetam]	-0.0756 ± 0.1
C[C@](O)(COc1ccc(C#N)cc1)C(=O)Nc1ccc(C#N)c(C(F)(F)F)c1	-0.0835 ± 0.0046
Cc1cc(SCc2sc(-c3ccc(C(F)(F)F)c(F)c3)nc2C)ccc1OCC(=O)O	-0.234 ± 0.11
O=C(O)CNC(=O)c1c(O)c2ccccc2n(Cc2ccccc2)c1=O	-0.0397 ± 0.11
C[C@@H]1O[C@@H](O[C@H]2C[C@@H](O)[C@]3(CO)[C@H]4[C@H](O)C[C@]5(C)[C@@H](C6=CC(=O)OC6)CC[C@]5(O)[C@@H]4CC[C@]3(O)C2)[C@H](O)[C@H](O)[C@H]1O [Ouabain]	0.122 ± 0.013
CCc1c(C(=O)C(N)=O)c2c(OCC(=O)O)cccc2n1Cc1ccccc1	0.106 ± 0.26
CCC(COC(=O)c1cc(OC)c(OC)c(OC)c1)(c1ccccc1)N(C)C (stereo not drawn) [Trimebutine]	-0.167 ± 0.33
CN1CCc2cc3c(cc2C1C1OC(=O)c2c1ccc1c2OCO1)OCO3 (single isomer, unassigned; (+)) [(+)-Bicuculline]	0.118 ± 0.25
Fc1cc(F)c2c(c1)[C@H]1C=CC[C@H]1C(c1cccnc1)N2 (stereo partly drawn) [Golgicide A]	-0.317 ± 0.28
Cn1cc(C2=C(c3cn(C4CCN(Cc5ccccn5)CC4)c4ccccc34)C(=O)NC2=O)c2ccccc21	-0.302 ± 0.08
CCN(CC)C(=O)c1ccc(C2=CC3(CCNCC3)Oc3cccc(O)c32)cc1	-0.0392 ± 0.061
Cc1sc2c(c1C)C(c1ccc(Cl)cc1)=N[C@@H](CC(=O)OC(C)(C)C)c1nnc(C)n1-2	-0.453 ± 0.079
COc1cc(-n2c(=S)[nH]c3ccccc3c2=O)c(Cl)cc1Cl [Mdivi-1]	-0.462 ± 0.047
O=c1[nH]c2ccc(Cl)cc2c(N[C@@H]2CN3CCC2CC3)c1-c1nc2ccccc2[nH]1	-0.389 ± 0.11
CCCN1CCO[C@@H]2c3cc(O)ccc3OC[C@H]21	0.0842 ± 0.0067
N[C@@H]1C[C@H]1c1ccccc1 [Tranylcypromine (2-PCPA) HCl]	-0.0239 ± 0.12
CCOC(=O)c1cncn1[C@H](C)c1ccccc1 [Etomidate]	0.00861 ± 0.3
CC[C@@H]1/C=C/C=C/C[C@H](C)[C@H](O)[C@](C)(O)C(=O)[C@H](C)[C@@H](O)[C@H](C)C(=O)[C@H](C)[C@@H](O)[C@H](C)/C=C/C(=O)O[C@H]2[C@@H](C)[C@@H](CC1)O[C@@]1(CC[C@@H](C)[C@@H](C[C@H](C)O)O1)[C@@H]2C [Oligomycin A]	-0.335 ± 0.16
Cc1ccc(-n2nccn2)c(C(=O)N2CCN(c3nc4cc(Cl)ccc4o3)CC[C@H]2C)c1 [Suvorexant (MK-4305)]	0.0699 ± 0.038
CN1CCCCC1Cn1cc(C(=O)c2cc([N+](=O)[O-])ccc2I)c2ccccc21 (stereo not drawn)	-0.121 ± 0.041
Cc1sc2c(c1C)C(c1ccc(Cl)cc1)=N[C@@H](CC(=O)Nc1ccc(O)cc1)c1nnc(C)n1-2	-0.455 ± 0.086
O=C(O[C@H]1C[C@H]2CC[C@@H](C1)[N+]21CCCC1)C(O)(c1ccccc1)c1ccccc1 [Trospium chloride]	0.0933 ± 0.012
C=C1C[C@@H]2[C@H](CC[C@]3(C)C(=O)CC[C@@H]23)[C@@]2(C)C=CC(=O)C=C12 [Exemestane]	0.062 ± 0.1
C[C@@]12N[C@@H](Cc3ccccc31)c1ccccc12 [(-)-MK 801 Maleate]	-0.488 ± 0.026
O=[N+]([O-])/C=C/c1ccc2c(c1)OCO2 [MNS (3,4-Methylenedioxy-Œ≤-nitrostyrene, MDBN)]	-0.226 ± 0.23
CC(=O)O[C@H]1C[C@@H]2CC[C@@H]3[C@H](CC[C@@]4(C)[C@H]3C[C@H]([N+]3(C)CCCCC3)[C@@H]4OC(C)=O)[C@@]2(C)C[C@@H]1[N+]1(C)CCCCC1 [Pancuronium dibromide]	-0.0464 ± 0.16
CCOc1ccccc1-n1c(C(C)N2CCN(C(=O)COc3ccc(Cl)cc3)CC2)nc2ccccc2c1=O (stereo not drawn) [Erastin]	-0.0128 ± 0.13
Cc1cc2c(C(C)C)c(O)c(O)c(C=O)c2c(O)c1-c1c(C)cc2c(C(C)C)c(O)c(O)c(C=O)c2c1O	-0.0342 ± 0.042

System: murine small intestinal organoids (ENR+CD Paneth differentiation)
Experiment: basal (non-stimulated) secreted lysozyme activity relative to plate median (log10 fold change); higher = more Paneth cell lysozyme secretion
Details: 0.08 µM; 6 d

Compound	basal (log10)
O=C1CC[C@@]2(O)[C@H]3Cc4ccc(O)c5c4[C@@]2(CCN3CC2CC2)[C@H]1O5 [Naltrexone HCl]	-0.00767 ± 0.035
COc1ccc(C(=O)N2CCCC2=O)cc1 [Aniracetam]	0.0889 ± 0.072
C[C@](O)(COc1ccc(C#N)cc1)C(=O)Nc1ccc(C#N)c(C(F)(F)F)c1	0.0355 ± 0.048
Cc1cc(SCc2sc(-c3ccc(C(F)(F)F)c(F)c3)nc2C)ccc1OCC(=O)O	0.0521 ± 0.15
O=C(O)CNC(=O)c1c(O)c2ccccc2n(Cc2ccccc2)c1=O	0.0292 ± 0.02
C[C@@H]1O[C@@H](O[C@H]2C[C@@H](O)[C@]3(CO)[C@H]4[C@H](O)C[C@]5(C)[C@@H](C6=CC(=O)OC6)CC[C@]5(O)[C@@H]4CC[C@]3(O)C2)[C@H](O)[C@H](O)[C@H]1O [Ouabain]	-0.00291 ± 0.046
CCc1c(C(=O)C(N)=O)c2c(OCC(=O)O)cccc2n1Cc1ccccc1	0.073 ± 0.14
CCC(COC(=O)c1cc(OC)c(OC)c(OC)c1)(c1ccccc1)N(C)C (stereo not drawn) [Trimebutine]	-0.106 ± 0.14
CN1CCc2cc3c(cc2C1C1OC(=O)c2c1ccc1c2OCO1)OCO3 (single isomer, unassigned; (+)) [(+)-Bicuculline]	0.0925 ± 0.13
Fc1cc(F)c2c(c1)[C@H]1C=CC[C@H]1C(c1cccnc1)N2 (stereo partly drawn) [Golgicide A]	0.267 ± 0.19
Cn1cc(C2=C(c3cn(C4CCN(Cc5ccccn5)CC4)c4ccccc34)C(=O)NC2=O)c2ccccc21	0.0854 ± 0.0086
CCN(CC)C(=O)c1ccc(C2=CC3(CCNCC3)Oc3cccc(O)c32)cc1	0.0526 ± 0.1
Cc1sc2c(c1C)C(c1ccc(Cl)cc1)=N[C@@H](CC(=O)OC(C)(C)C)c1nnc(C)n1-2	-0.256 ± 0.15
COc1cc(-n2c(=S)[nH]c3ccccc3c2=O)c(Cl)cc1Cl [Mdivi-1]	0.177 ± 0.18
O=c1[nH]c2ccc(Cl)cc2c(N[C@@H]2CN3CCC2CC3)c1-c1nc2ccccc2[nH]1	-0.155 ± 0.1
CCCN1CCO[C@@H]2c3cc(O)ccc3OC[C@H]21	0.0909 ± 0.058
N[C@@H]1C[C@H]1c1ccccc1 [Tranylcypromine (2-PCPA) HCl]	-0.0275 ± 0.14
CCOC(=O)c1cncn1[C@H](C)c1ccccc1 [Etomidate]	-0.00752 ± 0.025
CC[C@@H]1/C=C/C=C/C[C@H](C)[C@H](O)[C@](C)(O)C(=O)[C@H](C)[C@@H](O)[C@H](C)C(=O)[C@H](C)[C@@H](O)[C@H](C)/C=C/C(=O)O[C@H]2[C@@H](C)[C@@H](CC1)O[C@@]1(CC[C@@H](C)[C@@H](C[C@H](C)O)O1)[C@@H]2C [Oligomycin A]	-0.204 ± 0.075
Cc1ccc(-n2nccn2)c(C(=O)N2CCN(c3nc4cc(Cl)ccc4o3)CC[C@H]2C)c1 [Suvorexant (MK-4305)]	0.198 ± 0.12
CN1CCCCC1Cn1cc(C(=O)c2cc([N+](=O)[O-])ccc2I)c2ccccc21 (stereo not drawn)	0.0521 ± 0.062
Cc1sc2c(c1C)C(c1ccc(Cl)cc1)=N[C@@H](CC(=O)Nc1ccc(O)cc1)c1nnc(C)n1-2	-0.198 ± 0.12
O=C(O[C@H]1C[C@H]2CC[C@@H](C1)[N+]21CCCC1)C(O)(c1ccccc1)c1ccccc1 [Trospium chloride]	0.127 ± 0.051
C=C1C[C@@H]2[C@H](CC[C@]3(C)C(=O)CC[C@@H]23)[C@@]2(C)C=CC(=O)C=C12 [Exemestane]	0.0513 ± 0.19
C[C@@]12N[C@@H](Cc3ccccc31)c1ccccc12 [(-)-MK 801 Maleate]	0.00825 ± 0.055
O=[N+]([O-])/C=C/c1ccc2c(c1)OCO2 [MNS (3,4-Methylenedioxy-Œ≤-nitrostyrene, MDBN)]	0.0573 ± 0.045
CC(=O)O[C@H]1C[C@@H]2CC[C@@H]3[C@H](CC[C@@]4(C)[C@H]3C[C@H]([N+]3(C)CCCCC3)[C@@H]4OC(C)=O)[C@@]2(C)C[C@@H]1[N+]1(C)CCCCC1 [Pancuronium dibromide]	0.128 ± 0.085
CCOc1ccccc1-n1c(C(C)N2CCN(C(=O)COc3ccc(Cl)cc3)CC2)nc2ccccc2c1=O (stereo not drawn) [Erastin]	0.157 ± 0.026
Cc1cc2c(C(C)C)c(O)c(O)c(C=O)c2c(O)c1-c1c(C)cc2c(C(C)C)c(O)c(O)c(C=O)c2c1O	-0.0489 ± 0.054
